Test results: PubChem BioAssay (NCI)
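Following 48 hours of exposure in 96-well plates, responses at five concentrations were used to interpolate endpoints linearly. GI50 is the concentration that inhibits growth by half. TGI: total growth inhibition.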

Test system: NCI-H322M lung
Experiment: growth of human tumour cells (NCI), 48 h

In the case of CC(=O)Nc1nc(-c2ccc(N3CCN(C)CC3)c(NS(=O)(=O)c3cccc4c(N(C)C)cccc34)c2)cs1, the GI50 was 12.6 µM and the TGI was 23.8 µM.
